# Measured values: the supplement of paper PMC11417369
# Some of the results follow.
# Tested on: PfHDP1 homeodomain (GST-tagged)
# Assay: gcPBM binding intensity (ln(normalized median fluorescence intensity)); higher = stronger DNA binding
# Summary of the method: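 GST-tagged P. falciparum DNA-binding domains, expressed in E. coli (about 25 μg on average), were applied for 1 h to an Agilent 4 × 180k array of primer-extended double-stranded 36-bp intergenic genomic probes plus negative controls. The binding buffer was 1× PBS with 1% milk, 0.2 mg/ml BSA, 0.5% salmon testes DNA and 0.03% Triton X-100. Bound protein was detected with Alexa488 anti-GST antibody and scanned at 488 nm. Binding intensity is the highest Masliner-normalised natural-log median intensity across replicate spots of either probe orientation.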
row,Sequence,gcPBM binding intensity (ln)
1,ATTTTCTTTTCCATAGTGCAATATAATTATCCATCA [GTGCAC_site9547],10.9
2,TTATTATTTTATAACACACACATATAGATTATAGCT [CACACA_site6787],6.43
3,ATATATATATATATAAAGTGAAGTATGAGGGAAATA [XGTACX_negctrl_site497],9.22
4,TATGTATGTATTAATGCGCACACAAAAAATAACAAT [CACACA_site8551],7.73
5,AAAAATTAAATATAAAGTACAAAATTAAAATCTTAA [XGTACX_site931],5.89
6,TTTTGTATTTATGGATGTACATAATATGTTTTAAAC [XGTACX_site3278],6.68
7,ATACATATATATATGTGTACATATTATATATACATA [XGTACX_site8420],6.38
8,TTTCCATATATAGAACGTACAAAGATCTTTGTTACT [XGTACX_site8972],6.65
9,TATATATATTTATACACACAAACATAATACTACTTA [CACACA_site2022],6.86
10,TAGCTTTTGCCTTTTTTTAAAAAAAAATAAATAAAT [TGCATGCA_negctrl_site242],6.18
11,TGCATATACATATGTAGTACAATAATTTGAAAAAAA [XGTACX_site5239],6.37
12,TTTTTTTTTATGTGCACACAAAAGATGCTTATATTT [CACACA_site2348],11.2
13,TATATATGGTATAATTGTACTAACGCCAACTATACC [XGTACX_site5853],6.44
14,ATAAATACACACAAGTGTACATACTTCTATAAATAT [XGTACX_site1845],7.04
15,GTTATAAATAAATACACACATACAAAAATATGACGT [CACACA_site1154],6.57
16,ATATAAAATACATGGGTGCAATATATTAAACAAATA [GTGCAC_site9421],9.33
17,TATGACCTTAGAAATTGTACAAGAAAAAATGTTACA [XGTACX_site7084],6.57
18,TCACATACATGAAAATGTACTTTTATAATTCCATAA [XGTACX_site1836],6.3
19,ATCGTGAATAATATCTGTACATATGAACACATATAT [XGTACX_site952],6.54
20,TAAAGGTGAACAATACGTACATAAGAACTTATGAGG [XGTACX_site4216],6.43
21,TCTGTAAATACGTGCACACACAAATCACAAATGTGA [CACACA_site330],9.55
22,TAAATAATTTCACGAATGACAAAGATATAATAAGTT [CACACA_negctrl_site1430],6.42
23,ATTTTGTGCGCACACACATGCAAAAAGAAATATGAT [TGCATGCA_site261],10.5

row,Sequence,gcPBM binding intensity (ln)
1,AAAGAGAGTATCTAATGTACGTATGTATGTATATAT [XGTACX_site1780],6.74
2,ATATTATAATAAATGTGTACATATTGTAGAAATATT [XGTACX_site8101],6.56
3,AATTATTTACCCTATACACACAAAACACGCTAAAAA [CACACA_site1211],7.4
4,TATTATATATTAAATGCATGTAAAAATAATATTAAA [TGCATGCA_site643],6.59
5,TTCTTCAAGGAAAACACATGCGCATTTTCACCAATT [TGCATGCA_site11],8.44
6,ATATATATATATATATGTACATATGTATATTTTTTT [XGTACX_site1299],9.15
7,AAAATTATAATAATATGTACTTAAAAAATTTATATA [XGTACX_site632],6.07
8,TATATATATATATGTGCATGTTCCCCATGCTTCCAT [TGCATGCA_site366],9.5
9,TATATGTATTTATATACACACATATTCTTTTGACAC [CACACA_site1206],6.67
10,AATATATATATATATAGTACATATTTTTATTCATTA [XGTACX_site2156],6.24
11,ATATATATTTTTTAAACACACACATAAATATTTGTG [CACACA_site8936],6.94
12,AATACACAAATATATTGTACATATATATATATATAT [XGTACX_site2440],9.24
13,CATATATAAATATAAATATATATATATATATATATG [XGTACX_negctrl_site493],7.09
14,ACTTATTATTAATATTGTACTCTTGAAAATTGTGGA [XGTACX_site6315],6.26
15,TAATATATGAGAAATTGTACAGAAAGGAATATGCTT [XGTACX_site5300],6.67
16,TTACAAATGGTTTACACACACATAATTGTATCAATT [CACACA_site4167],6.72
17,AAGAAATATTTATACACACACACAAACATATATATA [CACACA_site1912],7.01
18,ATATTATTGTAGAAATGTACATATATATATATATAT [XGTACX_site1882],9.24
19,TATATATGTTCAATATGTACATATATATAAGTGTAT [XGTACX_site5157],6.64
20,CAAAAGTATAATAATACACACACTTTAAAAGTTAAA [CACACA_site3343],6.53
21,TAGATTCTTGAATAAGTGCAAAATATAATATTTATT,9.28
22,AAAAATAAAATAAAATAAAATAAACATACCATATGT [CACACA_negctrl_site594],6.34
23,TTTTTATTTTTGTAGTGTACTTTATTTTTTTTGTTT [XGTACX_site8887],6.77

row,Sequence,gcPBM binding intensity (ln)
1,TTTAAACAAGGATCCACACACCCCAAAAAAAAAAGA [CACACA_site680],7.34
2,CTGTATTCATAATTCACACAAATGGTTTATATGAAT [CACACA_site4315],6.44
3,TATATATATATATACACACACACACCCATATATATA [CACACA_site2538],9.27
4,CATATTTGCACTTTCACACATAAATATATAACTATA [CACACA_site6016],10.3
5,CATACATACAGATATACACACATATATAATAATATA [CACACA_site5477],6.89
6,ATATATATTTATTTATGTACGAATAAATTTACGAAT [XGTACX_site5190],6.49
7,AATATCATTATATAAGTGCATTTTTTAAAAGATAAA [GTGCAC_site9479],8.09
8,TTAATAGGTCGAAGTAGTACATAAAAATATATATAT [XGTACX_site5960],7.81
9,ATATATATATATCATAGTACACATATGTGTCTCGTG [XGTACX_site774],8.84
10,TTGTTATAGAAGCATTCACACACACCCATACATACA [CACACA_site8414],6.96
11,AAGTTAACAATATGAAGTACAAATGAAAAAAAAAAA [XGTACX_site666],6.58
12,TTTTTTTTTTTGTATCGTACATTTATAATGTTTATA [XGTACX_site6804],6.47
13,CATACACAAGAAAATTCACACACACCCATATATATA [CACACA_site9288],6.91
14,TCTTACAAAAAACAAACAGAGAAAAATATAAGGAAA [XGTACX_negctrl_site520],6.79
15,AACATACAGAAACACACACACACACCCACACCCACA [CACACA_site493],6.59
16,TTTTTTTCATATAACACACACACAAAAATAATGTGG [CACACA_site3688],6.7
17,TAAACATTGTAAAGGAGTACAAAATTTTTTTTATGA [XGTACX_site7757],6.27
18,AATAATAAAAAATACACACACATATATATATATTAC [CACACA_site3464],6.82
19,GGAAACACGATATATACACACATATTTATATTTATA [CACACA_site6250],6.68
20,AGAAAAGGAAAATAAACATGCAAAAATAATATTAAA [TGCATGCA_site337],6.75
21,ATGTTGTTATAAAGAGTGCAACGTATATGTATCCTT [GTGCAC_site9935],7.25
22,TCCAAATAAATATATTGTACAGAATTATTGATACCT [XGTACX_site327],6.24
23,TGTAATAATTATTGCACGCACACAAAAACCTATAGA [CACACA_site2932],10.2

row,Sequence,gcPBM binding intensity (ln)
1,TAAGGTTCATTAAAGTGTACACATAAATACCGTAAC [XGTACX_site8212],6.83
2,ATTCTGAATGTTATGCGTACATATTAATCCTATTTA [XGTACX_site1216],6.45
3,AAGTAAATATAATAAGGTACACATAAATAAATAAAT [XGTACX_site1740],6.72
4,TTCTTTTAAAGGTATACATGCGCATGGATTTTTCAT [TGCATGCA_site223],7.51
5,ATGTCTTTGAAAAAAAGTACTTAAAATTATAAAAAT [XGTACX_site147],6.52
6,ACTGTCGTTTTAAAGAGTACATAAAATATTAAATTA [XGTACX_site3589],6.06
7,AAAACTATTAATGCAAAAAATAAAATATAATAATAA [XGTACX_negctrl_site524],6.99
8,TCAAAGCACAGATACACACACATATATATATATATA [CACACA_site287],9.31
9,AATTAAAAAATTATCACACATATATATATATATATA [CACACA_site5789],9.53
10,TATATACCACATTGTTGTACGACACATTTACATTTT [XGTACX_site8370],7.13
11,TACAAATATAGACACACACACATATATATATATATA [CACACA_site585],9.43
12,ATAAAAAAATAAAACACACACATATAGATTATAGAT [CACACA_site7343],7
13,TAATTTGAAAAATTGTGTACTCATAAAATAAATAAA [XGTACX_site2138],6.55
14,GATTTATATATATAAAATAATTGAATATTTTCTTTT [CACACA_negctrl_site801],6.05
15,TTTATTTTTCATAATTGTACAAAAATAAATGGAAAC [XGTACX_site5144],6.9
16,ATAGATGATATACGTAAACACACAAATAAAAAAAAT [CACACA_site9095],6.97
17,TTTTCTTACTATTGTAGTACAATATTATATTCTTTT [XGTACX_site1925],7.09
18,TATAAATATGTATATACACACTTTTAATATTCATAA [CACACA_site7856],6.57
19,TGCGTATTCTTATTAGGTACACATATTCGTGATAAT [XGTACX_site5681],6.13
20,CATATATCATAAATATGTACGAAATAAAAGAATCAT [XGTACX_site942],6.85
